Experimental data from publication PMC4242493.
The list shows a part of the results. The list includes weakly bound sequences.

biological target: MaxL homodimer (UniProt P61244); assay: universal protein-binding microarray (PBM); settings: PBS-based mixture, 10 nM His-tagged protein dimer, 2% milk, 200 ng/uL BSA, 50 ng/uL salmon testes DNA, 0.02% TX-100; detection with Alexa 488 anti-His …; high values mean tight binding; most listed sequences are background and not binding sites; double strand, one strand shown
UniProt P61244, sequence (P61244 whole entry): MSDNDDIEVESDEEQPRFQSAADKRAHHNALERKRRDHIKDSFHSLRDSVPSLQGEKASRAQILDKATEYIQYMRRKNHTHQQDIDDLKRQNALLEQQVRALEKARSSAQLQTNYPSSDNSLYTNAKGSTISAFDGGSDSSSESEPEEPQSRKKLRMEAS

| Sequence | binding signal (normalized occupancy) |
| --- | --- |
| AAATCTTC | 0.0711 |
| AGGCTACA | 0.0725 |
| ATCAAATG | 0.0776 |
| CACGGAAG | 0.0721 |
| AATATGTG | 0.0882 |
| ACATTCTG | 0.083 |
| GTCGGATA | 0.0771 |
| CAGGCGGA | 0.0767 |
| CACACCAC | 0.0917 |
| CCCTACCA | 0.0813 |
| GCGCAAGA | 0.0685 |
| GGAGCCCC | 0.068 |
| TCATTCCA | 0.0776 |
| CTACTCGA | 0.0717 |
| CCCGTGCA | 0.0874 |
| AGCTCCCA | 0.0706 |
| GACACAAC | 0.0744 |
| GCCTATGA | 0.0799 |
| AGACGGAA | 0.0698 |
| GTCATCTA | 0.0772 |
| ATACCGTA | 0.074 |
| CAGAGCTC | 0.0676 |
| GCAATATA | 0.0786 |
| GCGTTAGA | 0.0731 |
| AGTCTAAC | 0.0768 |

| Sequence | binding signal (normalized occupancy) |
| --- | --- |
| CTTTAAGC | 0.0686 |
| AGGATCAC | 0.086 |
| GATCCCGA | 0.0744 |
| CGTACTTA | 0.0765 |
| GCTGTAGA | 0.0741 |
| CGCGCGAA | 0.075 |
| GCTATGTA | 0.0774 |
| CTTCCTAC | 0.0696 |
| CGCGGAGA | 0.0679 |
| CGACTACC | 0.0729 |
| GCCCAAGC | 0.0692 |
| TCCAAGGA | 0.0679 |
| CATGACGA | 0.0829 |
| TGAGGCAA | 0.0764 |
| CACGGGGC | 0.0863 |
| ACCACACG | 0.0972 |
| GGGATGCA | 0.0857 |
| CTGGCGGA | 0.0747 |
| ACACCTAC | 0.0802 |
| AACCTATC | 0.0788 |
| ATATGAGC | 0.0845 |
| TACTAGTA | 0.07 |
| CTCCGATA | 0.0722 |
| GGAATGGA | 0.0781 |
| CCTCTAGA | 0.0678 |

| Sequence | binding signal (normalized occupancy) |
| --- | --- |
| GTGGTCGA | 0.0832 |
| ACGTAGCG | 0.0805 |
| CAACAGCC | 0.0719 |
| GGCTGCTA | 0.071 |
| ACGAATTG | 0.0751 |
| GCACGAAC | 0.0828 |
| AATTGAAT | 0.0745 |
| AAGCCACC | 0.072 |
| GACCGGAC | 0.0704 |
| GGCCAAGA | 0.0669 |
| GATGCCAA | 0.075 |
| AAGCATTA | 0.082 |
| CATTTAAA | 0.0776 |
| AGGAAAAT | 0.0788 |
| CCCTCCCA | 0.0828 |
| ACCACGAC | 0.0788 |
| GCAAGCTA | 0.0719 |
| TGCACGAA | 0.0777 |
| GTCAGGAA | 0.0726 |
| AGTAGGCG | 0.0726 |
| CAAACTTA | 0.074 |
| CATCTCAA | 0.0793 |
| TGCTGGAA | 0.0708 |
| AAGTATAC | 0.0794 |
| ACACGCAT | 0.0976 |

| Sequence | binding signal (normalized occupancy) |
| --- | --- |
| AGATTAAC | 0.074 |
| CGTGGAGC | 0.0913 |
| ACCTAACT | 0.0715 |
| CCACGTAA | 0.0803 |
| CACCGGGA | 0.0779 |
| ACAGCACC | 0.0748 |
| AGGCCCTC | 0.073 |
| AGCCATCG | 0.0774 |
| TCTTGTAA | 0.0718 |
| GTGTACGA | 0.0781 |
| AAGATATA | 0.0814 |
| CGTGCCCC | 0.0814 |
| GAGATAAC | 0.0767 |
| TAGCTATA | 0.0777 |
| TCGCGACA | 0.0724 |
| CGGCAGTC | 0.07 |
| CCGACCCC | 0.081 |
| CAGATTCG | 0.0801 |
| CTTCCTCA | 0.0751 |
| AGGGGTAT | 0.0835 |
| CACGCTTA | 0.103 |
| ACACATCG | 0.082 |
| CGCCGGTC | 0.0693 |
| AACGGGCG | 0.0711 |
| CCATCGGC | 0.071 |

| Sequence | binding signal (normalized occupancy) |
| --- | --- |
| CGCGCACC | 0.0841 |
| CAAGCAAC | 0.0732 |
| AAGATTAA | 0.073 |
| GCCCTCCC | 0.0743 |
| AGGAGAGG | 0.0762 |
| TGTGATAA | 0.0816 |
| GAGCGATA | 0.0734 |
| CCGGCCAG | 0.0645 |
| TCTTTCAA | 0.0757 |
| AGATTGAA | 0.0772 |
| AAAAAGGC | 0.0707 |
| ACCTATAC | 0.0887 |
| AAGTCTGT | 0.0749 |
| CAATGCAC | 0.0848 |
| GCCTTAAA | 0.0724 |
| CAGGAAAA | 0.0702 |
| CATACCGG | 0.0781 |
| AGAGATAG | 0.0711 |
| AACGATAG | 0.081 |
| TCAATTCA | 0.0818 |
| AGGTGAAG | 0.0713 |
| ACATTGTC | 0.0885 |
| CGCACGAA | 0.0816 |
| ACGCGAGG | 0.0859 |
| CTCTTGAA | 0.069 |

| Sequence | binding signal (normalized occupancy) |
| --- | --- |
| AACCGCTG | 0.0688 |
| ACACAGTG | 0.0742 |
| ACCATCAT | 0.0841 |
| GCCGGTTA | 0.0674 |
| ACCGAGGA | 0.0694 |
| CACGCAAG | 0.0838 |
| GATTAGAA | 0.0792 |
| ATCAGTTG | 0.0803 |
| CACTCCTA | 0.0771 |
| CTTCATGA | 0.0786 |
| ACACATAC | 0.0823 |
| CGCCGTTA | 0.0701 |
| CAAATAAG | 0.0746 |
| AACGGATA | 0.0769 |
| GGAGGTAC | 0.0702 |
| ACGGAACA | 0.0733 |
| GGCGATTA | 0.0745 |
| ACGTGTAC | 0.0984 |
| ATAGATCG | 0.0741 |
| GTCCAGTA | 0.0711 |
| AACGCCCG | 0.0749 |
| AAATTCGG | 0.0731 |
| ATCTATAA | 0.0827 |
| CGCTGTAA | 0.0749 |
| GTCGCGAC | 0.0765 |

| Sequence | binding signal (normalized occupancy) |
| --- | --- |
| TGATAGAA | 0.0854 |
| CGCACGCA | 0.0894 |
| AGGACAGA | 0.0755 |
| CTGGCATC | 0.0802 |
| GTCTACAC | 0.0796 |
| CAGGGTTC | 0.0691 |
| GTAGGCCA | 0.073 |
| GACGCAGC | 0.0696 |
| TTCATGAA | 0.0781 |
| AAACCTGT | 0.0771 |
| CCCCATCA | 0.0823 |
| ATACTTAG | 0.0765 |
| CCGCCTAA | 0.0695 |
| ACTTCCCC | 0.0762 |
| AGTCCTCG | 0.073 |
| CTCCGAGA | 0.0665 |
| GTCTTTAA | 0.075 |
| AGGGTGTG | 0.083 |
| CCGCGTTA | 0.0844 |
| ATTCCGTA | 0.0718 |
| CTTGAGCA | 0.0716 |
| ATCTATCC | 0.079 |
